# Laboratory results published in ChEMBL document CHEMBL1201862, “PubChem BioAssay data set” (2004).
# Where a name gives a salt, the structure may show the parent alone.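 In this assay, cells in 96-well plates receive the compound at five concentrations for 48 hours. Endpoints are linearly interpolated between the surrounding concentrations. GI50: concentration for 50% inhibition of growth.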 Calls of active or inactive are those of the source. Rule as the data show it: active = GI50 up to about 1.1 µM and inactive = higher.
# Test system: NCI-H322M
# Assay: NCI-60 cell line screen, 48 h
row,SMILES,GI50
1,COC(=O)N/N=C/C(=C/Nc1ccccc1)[N+](=O)[O-],inactive: > 100 µM
2,CCCCCc1cc(CCCC)sc1-c1ccco1,inactive: > 100 µM
3,S=c1c2cc(I)ccc2nc(S)n1Cc1ccccc1,inactive: 4.66 µM
4,CCOC(=O)/C=C/CC(C)(C)CCOC(C)=O,inactive: > 10 µM
5,CC(=O)Oc1c(OC(C)=O)c(-c2ccc(O)c(O)c2)c(O)c(O)c1-c1ccc(O)cc1,inactive: > 100 µM
6,CCC(CCCN)Nc1cc(OC)cc2cccnc12 (stereo not given),inactive: > 100 µM
7,CC(=O)Oc1ccc(/C=C/C(=O)O[C@@H](C)[C@H](C)OC(=O)/C=C/c2ccc(OC(C)=O)c(OC(C)=O)c2)cc1OC(C)=O,inactive: 18 µM
8,Cc1cc(Cl)ccc1NC(=O)CC1SC(N)=NC1=O (stereo not given),inactive: > 100 µM
9,O=c1c(O)c(-c2ccccc2)n(O)c2ccc(Cl)cc12,inactive: 35.2 µM
10,CCCCCCCCCOC(=O)c1cnc(Cl)cn1,inactive: 15.3 µM
11,CSc1nc2ccccc2c(=O)n1/N=C1\C(=O)N(CN2CCCCC2)c2ccc(Cl)cc21,inactive: 49.3 µM
12,CC(C)C(=O)Nc1nc2[nH]cnc2c(=O)[nH]1,inactive: > 100 µM
13,O=C(NNC(=S)NC1CCCCC1)C12CC3CC(CC(C3)C1)C2,inactive: > 100 µM
14,COc1ccc(SCc2cc(OCc3ccccc3)c(OCc3ccccc3)c(OCc3ccccc3)c2)cc1,inactive: 1.8 µM
15,COC1=C(Br)C(O)C2(C=C1Br)CC(C(=O)NCCCCNC(=O)C1=NOC3(C=C(Br)C(OC)=C(Br)C3O)C1)=NO2 (stereo not given),inactive: 30.1 µM
16,CS(=O)(=O)c1nc(-c2cc3c(c(S(C)(=O)=O)n2)CCC3)cc2c1CCC2,inactive: > 100 µM
17,O=C(Nc1ccccc1)N(CCN(Cc1ccccc1)C(=O)Nc1ccccc1)CCN(Nc1ccccc1)C(=O)Nc1ccccc1,inactive: > 100 µM
18,CC(=O)N1c2ccccc2C2=NN(C)C(=N)SC21 (stereo not given),inactive: 88.1 µM
19,O=C(NC1CCCCC1)c1c(O)[nH]c(=S)[nH]c1=O,inactive: > 100 µM
20,COc1ncc(C=C(C#N)C#N)c(OC)n1,inactive: > 100 µM
21,Cc1nc(N)nc(S)c1CCCNc1ccccc1,inactive: 83.8 µM
22,N#Cc1c(N2CCCC2)ncn(Cc2ccccc2)c1=O,inactive: > 100 µM
23,BrC/C=C/C[P+](c1ccccc1)(c1ccccc1)c1ccccc1,inactive: 50.7 µM
24,COc1cc2c(cc1O)C(Cc1ccc(OCc3ccccc3)c(OCc3ccccc3)c1)N(C(=O)NCCc1ccccc1)CC2 (stereo not given),inactive: > 100 µM

row,SMILES,GI50
1,COC(=O)CCSC(=O)Nc1ccc(/N=N/c2ccccc2)cc1,inactive: > 100 µM
2,CC(=O)[C@@H]1C/C(=C\OCc2ccccc2)O[C@H]1C,inactive: > 100 µM
3,CCCNC(=O)Cn1c2c(c3ccccc31)CCCC2,inactive: 57.4 µM
4,COc1c(C)cc2c(c1O)C1C3[C@H]4SC[C@@]5(NCCC6=C5NC5C=CC=CC65)C(=O)OCC(c5c6c(c(C)c(OC(C)=O)c54)OCO6)N3[C@@H](O)C(C2)N1C (stereo not given in full),active: 0.0133 µM
5,Cc1ccc(NC2=NCCO2)c2c1CCC2,inactive: 52.4 µM
6,CCCCCCC(=O)c1ccc2ccccc2c1O,inactive: > 100 µM
7,COC1=C(OC)C(=O)C(Cc2c(C)nc3sc(C)cn23)=C(C)C1=O,inactive: 36.9 µM
8,Clc1ccc(CNc2nc3ccccc3nc2-c2cccs2)c(Cl)c1,inactive: > 100 µM
9,CC1=NN(c2ccccc2)C(=O)C1=C1SCCS1,inactive: > 100 µM
10,COC(=O)c1c2c(cc3c1CC1(Cc4cc5c(c(C=O)c4C1)CCC5)C3)CCC2 (stereo not given),inactive: 95.5 µM
11,CO[C@]1(c2ccc([N+](=O)[O-])cc2)Oc2ccccc2C(=O)[C@@]1(Nc1ccc(C=O)cc1)OC,inactive: > 10 µM
12,COc1cc(/C=C2\Cc3ccccc3C2=O)cc(OC)c1OC,inactive: > 100 µM
13,NC(CCCC(N)P(=O)(O)c1ccccc1)P(=O)(O)c1ccccc1 (stereo not given),inactive: > 261 µM
14,Cc1cc(C)c2c(=O)n(CC(O)CN3CCN(CCOCCO)CC3)sc2n1 (stereo not given),inactive: 37.7 µM
15,COC(=O)[C@@H]1CO[C@H](C(C)(C)C)N1C(=O)N1C=CC(=O)C[C@H]1C,inactive: > 100 µM
16,COc1ccc(/C(Cl)=C(\C=O)c2ccc(Cl)cc2)cc1OC,inactive: 5.56 µM
17,CCOC(=O)C1(Cc2ccc(C)cc2)Cc2ccc(C)cc2C1=O (stereo not given),inactive: 72.1 µM
18,O=C(O)CC1(C(=O)O)CCCCC1,inactive: > 100 µM
19,NS(=O)(=O)c1ccc(C(=O)O)cc1 [CARZENIDE],inactive: > 100 µM
20,Cc1cc2c(cc1-c1cc3c(cc1C)C(C(C)C)=C(O)C(=O)/C3=C\Nc1ccccn1)/C(=C/Nc1ccccn1)C(=O)C(O)=C2C(C)C,inactive: 77.6 µM
21,CCN(CC)c1nc(=O)c(C(=O)C(C)(C)C)c(C(C)(C)C)o1,inactive: > 100 µM
22,O=c1cc(-c2ccccc2F)[nH]c2cc3c(cc12)OCO3,active: 0.3 µM
23,Cn1c(COC(=O)Nc2ccccc2)c(COC(=O)Nc2ccccc2)c2ccc3cc(Cl)c(Cl)cc3c21,inactive: 13.1 µM
24,c1ccc(Sc2nc(Sc3ccccc3)nc(Sc3ccccc3)n2)cc1,inactive: 17.8 µM

row,SMILES,GI50
1,COC(=O)c1nc(-c2nc(CCNC(=O)OC(C)(C)C)sc2Cl)sc1Cl,inactive: > 100 µM
2,CSc1nc(Cl)c2c(n1)Sc1nc3cc4c(cc3n1C2O)OCO4 (stereo not given),inactive: 4.75 µM
3,CC1=NOC(=O)/C1=C/c1ccc2c(c1)OCO2,inactive: > 100 µM
4,CN(C)CCn1c(=O)oc2cc(C(=O)CN3CCOCC3)ccc21,inactive: > 100 µM
5,COc1ccc(-c2cc(-c3ccccc3)n(C3OCC(OC(C)=O)C(OC(C)=O)C3OC(C)=O)c(=S)c2C#N)cc1 (stereo not given),inactive: > 100 µM
6,CC[C@@]1(O)C(=O)OCc2c1cc1n(c2=O)Cc2c-1nc1ccc(O)cc1c2[Si](C)(C)C(C)(C)C [AR-67],active: 0.0313 µM
7,N=C(N)NS(=O)(=O)c1ccc(NC(=O)c2ccc(Cl)c3c(Nc4ccc(S(=O)(=O)N=C(N)N)cc4)c4ccccc4nc23)cc1,inactive: 66.5 µM
8,COc1ccccc1NC(=O)CC(=O)N/N=C/c1ccc(N(CCC#N)S(=O)(=O)c2ccccc2)cc1,inactive: > 100 µM
9,CCCCOC(=O)CC(CC(=O)OCCCC)(OC(C)=O)C(=O)OCCCC [ACETYLTRIBUTYL CITRATE],inactive: > 200 µM
10,NC1(C(=O)O)CCC(C(=O)O)CC1 (stereo not given),inactive: > 100 µM
11,N/C(=N/O)N/N=C\c1cc(Cl)cc(Cl)c1O,inactive: 8.99 µM
12,CCc1n[nH]c(=O)n1/N=C/c1ccc(C)cc1,inactive: 64 µM
13,[O-]c1c2c(nn1-c1ccc(Cl)cc1)c1ccccc1c[n+]2Cc1ccccc1,inactive: > 100 µM
14,O=C(O)c1nc2ccccc2nc1NCc1ccc(F)cc1,inactive: 39.1 µM
15,CC(=O)N/C(=C\c1ccc(Cc2nc3c([nH]2)C(=O)c2ccccc2C3=O)cc1)c1nc2c([nH]1)C(=O)c1ccccc1C2=O,inactive: > 100 µM
16,CC(C)[S+]1C2=C(CC(C)(C)CC2=O)[N-]c2ccccc21 (stereo not given),inactive: > 100 µM
17,CCCCCCCCCCCCC/C=C1\C[C@H](O)COC1=O,inactive: 16.5 µM
18,COc1ccc(N(C(=O)Nc2ccc(Cl)c(Cl)c2)C2c3cccn3C(=O)N2c2ccc(Cl)c(Cl)c2)cc1 (stereo not given),inactive: > 100 µM
19,O=C(NN1C(=O)c2ccccc2C1=O)c1ccccc1Nc1ccccc1C(=O)NN1C(=O)c2ccccc2C1=O,inactive: > 100 µM
20,Cc1cccc(NC(=O)CC#N)c1Cl,inactive: > 100 µM
21,CCOC(=O)c1cc(OC(=O)CC)c2c(OC)ccc(OC)c2c1,inactive: > 100 µM
22,COC(=O)C1(C(=O)OC)CC2=C(S(=O)(=O)c3ccccc3)C[C@H](S(=O)(=O)c3ccccc3)[C@H]2C1,inactive: > 100 µM
23,N=c1c2c(-c3ccccc3)c[nH]c2ncn1N,inactive: > 100 µM
24,O=C1C=CC2(O[C@H](C3CCCCC3)[C@@H](C3CCCCC3)O2)C(SC(=O)c2ccccc2)C1 (stereo not given in full),inactive: 8.79 µM

row,SMILES,GI50
1,N#C[BH2-][n+]1ccc(C(=O)NNCc2ccc(F)cc2)cc1,inactive: > 100 µM
2,COc1ccc(NC(=S)N/N=C(\c2ccccc2)c2ccccn2)cc1,active: < 0.01 µM
3,Cc1cc(C(=C2C=CC(=[N+](C)C)C=C2)c2ccc([N+](C)(C)C)cc2)ccc1N(C)C,inactive: 5.74 µM
4,C=C1c2nc3ccccc3n2C=C(c2ccccc2)N1c1ccc(C)cc1,inactive: > 100 µM
5,COc1ccc(C2S/C(=C\c3cc(OC)c(OC)c(OC)c3)C(=O)N2NC(=O)Cc2ccccc2)cc1 (stereo not given),inactive: > 100 µM
6,COC(c1ccsc1)C(C#N)(C#N)/N=C/c1ccsc1 (stereo not given),inactive: 12.9 µM
7,c1cc(-c2ccsc2-c2ccsc2)cs1,inactive: > 100 µM
8,OC1CN=C2c3ccccc3C(O)(c3ccc(Cl)cc3)N2C1 (stereo not given),inactive: > 100 µM
9,C1CN2CCNCCN(CCN1)CC2,inactive: > 100 µM
10,COC(c1ccccc1)C(c1ccccc1)N1CCOCC1 (stereo not given),inactive: > 100 µM
11,NCCCCCS(=O)(=O)O,inactive: > 100 µM
12,O=C(O)c1ccccc1C(=O)OCC1CCCN2CCCCC12 (stereo not given),inactive: > 100 µM
13,Cc1c(O)oc2ccccc2c1=O,inactive: > 100 µM
14,CSc1c(C#N)c(=O)[nH]c2[nH]nc(C)c12,inactive: > 100 µM
15,c1ccc(/N=C(/Nc2ccccc2)N2CCCCC2)cc1,inactive: > 100 µM
16,CO[C@]12CC(=O)C3(C(C[C@H]4CC5CCC6=CC(=O)CC[C@]6(OC(C)=O)C5C[C@@]43C)C1)C1C[C@H]3[C@@H]4CCC5=CC(=O)CC[C@]5(OC(C)=O)[C@H]4CC[C@]3(C)C12 (stereo not given in full),inactive: > 100 µM
17,N#Cc1ccc(/C=N/C23CC4CC(CC(C4)C2)C3)cc1,inactive: > 100 µM
18,CSc1nnnc2ccccc12,inactive: > 100 µM
19,N#Cc1nc(/C=C/c2cccs2)oc1N,inactive: 91.6 µM
20,COc1ccc2c(c1)CCN1CCc3cc(OC)c(OC)cc3CC21 (stereo not given),inactive: > 100 µM
21,NC1=C(Br)C(=O)c2ncccc2C1=O,inactive: 1.31 µM
22,Oc1nc2cc(Cl)ccc2nc1/C(=N\Nc1ccccc1)C(O)c1ccc2c(c1)OCO2 (stereo not given),inactive: > 100 µM
23,O=C(O)C(CS)NCc1c2ccccc2[n+]([O-])c2ccccc12 (stereo not given),inactive: 28.6 µM
